Measurements reported in the supplement of paper PMC4604168 (melanoma cell lines).
This is one part of the list. Repeats are few or missing, and single values can be far off.

Test system: A101D
Test: cell count relative to DMSO control; melanoma cells; higher = more viable cells
Conditions: library dose: standard library concentration; 72 h
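Note: cells treated in 1,536-well plates, then fixed and DAPI-stained, with nuclei counted from automated high-throughput microscope images.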

Row | Compound | cell count [%]
1 | C[C@]1(O)C[C@@H](c2nc(-c3ccc4ccc(-c5ccccc5)nc4c3)c3c(N)nccn32)C1 + CNC(=O)c1cc(Oc2ccc(NC(=O)Nc3ccc(Cl)c(C(F)(F)F)c3)cc2)ccn1 [sorafenib] (first compound 2 µM, partner dose 2 µM) | 86.8
2 | COc1cc([C@@H]2c3cc4c(cc3[C@@H](O[C@@H]3O[C@@H]5CO[C@@H](C)O[C@H]5[C@H](O)[C@H]3O)[C@H]3COC(=O)[C@H]23)OCO4)cc(OC)c1O [etoposide] + COC(=O)c1sccc1S(=O)(=O)Nc1ccc(Nc2ccccc2)cc1OC [GSK0660] (first compound 0.1 µM, partner dose 5 µM) | 94.7
3 | Cn1cnc2c(F)c(Nc3ccc(Br)cc3Cl)c(C(=O)NOCCO)cc21 [selumetinib] + CS(=O)(=O)c1ccc(C(=O)Nc2ccc(Cl)c(-c3ccccn3)c2)c(Cl)c1 [vismodegib] (first compound 0.075 µM, partner dose 5 µM) | 70.5
4 | COc1cc([C@@H]2c3cc4c(cc3[C@@H](O[C@@H]3O[C@@H]5CO[C@@H](C)O[C@H]5[C@H](O)[C@H]3O)[C@H]3COC(=O)[C@H]23)OCO4)cc(OC)c1O [etoposide] + Cc1ccc(NC(=O)c2cccc(N(C)C)c2)cc1NC(=O)c1ccc(O)cc1 [ZM336372] (first compound 0.1 µM, partner dose 10 µM) | 92.8
5 | COc1cc([C@@H]2c3cc4c(cc3[C@@H](O[C@@H]3O[C@@H]5CO[C@@H](C)O[C@H]5[C@H](O)[C@H]3O)[C@H]3COC(=O)[C@H]23)OCO4)cc(OC)c1O [etoposide] + Cn1c(=O)n(-c2ccc(C(C)(C)C#N)cc2)c2c3cc(-c4cnc5ccccc5c4)ccc3ncc21 [NVP-BEZ235] (first compound 0.1 µM, partner dose 0.02 µM) | 80.5
6 | COc1cc([C@@H]2c3cc4c(cc3[C@@H](O[C@@H]3O[C@@H]5CO[C@@H](C)O[C@H]5[C@H](O)[C@H]3O)[C@H]3COC(=O)[C@H]23)OCO4)cc(OC)c1O [etoposide] + COc1ccc(C2=N[C@@H](c3ccc(Cl)cc3)[C@@H](c3ccc(Cl)cc3)N2C(=O)N2CCNC(=O)C2)c(OC(C)C)c1 [Nutlin-3] (first compound 0.1 µM, partner dose 0.5 µM) | 78.9
7 | CCN(CC)CCNC(=O)c1c(C)[nH]c(/C=C2\C(=O)Nc3ccc(F)cc32)c1C [sunitinib] + Cn1c(Nc2ccc(C(F)(F)F)cc2)nc2cc(Oc3ccnc(-c4ncc(C(F)(F)F)[nH]4)c3)ccc21 [CHIR265] (first compound 2 µM, partner dose 0.4 µM) | 48.3
8 | COc1cc([C@@H]2c3cc4c(cc3[C@@H](O[C@@H]3O[C@@H]5CO[C@@H](C)O[C@H]5[C@H](O)[C@H]3O)[C@H]3COC(=O)[C@H]23)OCO4)cc(OC)c1O [etoposide] + O=C(Nc1cccc(Cl)c1)Nc1ncc(CCNc2ncnc3ccsc23)s1 [SNS314] (first compound 0.1 µM, partner dose 0.004 µM) | 73.7
9 | CCN(CC)CCNC(=O)c1c(C)[nH]c(/C=C2\C(=O)Nc3ccc(F)cc32)c1C [sunitinib] + Cn1cncc1[C@@](N)(c1ccc(Cl)cc1)c1ccc2c(c1)c(-c1cccc(Cl)c1)cc(=O)n2C [tipifarnib] (first compound 2 µM, partner dose 0.05 µM) | 52.1

Test system: A2058
Test: as above
Conditions: library dose: standard library concentration; 72 h

Row | Compound | cell count [%]
10 | COc1cc([C@@H]2c3cc4c(cc3[C@@H](O[C@@H]3O[C@@H]5CO[C@@H](C)O[C@H]5[C@H](O)[C@H]3O)[C@H]3COC(=O)[C@H]23)OCO4)cc(OC)c1O [etoposide] + CCCS(=O)(=O)Nc1ccc(F)c(C(=O)c2c[nH]c3ncc(Cl)cc23)c1F [PLX4720] (first compound 0.1 µM, partner dose 0.4 µM) | 89.4
11 | CCN(CC)CCNC(=O)c1c(C)[nH]c(/C=C2\C(=O)Nc3ccc(F)cc32)c1C [sunitinib] + CN(c1ncccc1CNc1nc(Nc2ccc3c(c2)CC(=O)N3)ncc1C(F)(F)F)S(C)(=O)=O [PF562271] (first compound 2 µM, partner dose 0.4 µM) | 69.3
12 | Cn1cnc2c(F)c(Nc3ccc(Br)cc3Cl)c(C(=O)NOCCO)cc21 [selumetinib] + CN1CCN(c2ccc3nc(-c4c(N)c5c(F)cccc5[nH]c4=O)[nH]c3c2)CC1 [Dovitinib] (first compound 0.075 µM, partner dose 0.5 µM) | 22.5
13 | C[C@]1(O)C[C@@H](c2nc(-c3ccc4ccc(-c5ccccc5)nc4c3)c3c(N)nccn32)C1 + CO[C@@H]1[C@H](N(C)C(=O)c2ccccc2)C[C@H]2O[C@]1(C)n1c3ccccc3c3c4c(c5c6ccccc6n2c5c31)C(=O)NC4 [Midostaurin] (first compound 2 µM, partner dose 0.4 µM) | 52.4
14 | Cn1cnc2c(F)c(Nc3ccc(Br)cc3Cl)c(C(=O)NOCCO)cc21 [selumetinib] + NC(=O)c1ccc(N(C(N)=O)c2c(F)cccc2F)nc1-c1ccc(F)cc1F [VX702] (first compound 0.075 µM, partner dose 2 µM) | 106
15 | CCN(CC)CCNC(=O)c1c(C)[nH]c(/C=C2\C(=O)Nc3ccc(F)cc32)c1C [sunitinib] + Cn1nnc2c(C(N)=O)ncn2c1=O [temozolomide] (first compound 2 µM, partner dose 10 µM) | 40.1
16 | CCN(CC)CCNC(=O)c1c(C)[nH]c(/C=C2\C(=O)Nc3ccc(F)cc32)c1C [sunitinib] + COc1cc(Nc2ncc(F)c(Nc3ccc4c(n3)NC(=O)C(C)(C)O4)n2)cc(OC)c1OC [Tamatinib] (first compound 2 µM, partner dose 2 µM) | 65.4
17 | CCN(CC)CCNC(=O)c1c(C)[nH]c(/C=C2\C(=O)Nc3ccc(F)cc32)c1C [sunitinib] + CC(C)C[C@H](NC(=O)[C@H](Cc1ccccc1)NC(=O)c1cnccn1)B(O)O [Bortezomib] (first compound 2 µM, partner dose 0.005 µM) | 11.4
18 | CCN(CC)CCNC(=O)c1c(C)[nH]c(/C=C2\C(=O)Nc3ccc(F)cc32)c1C [sunitinib] + C[C@@H]1CCN(C(=O)CC#N)C[C@@H]1N(C)c1ncnc2[nH]ccc12 [CP690550] (first compound 2 µM, partner dose 5 µM) | 69.9
19 | Cn1cnc2c(F)c(Nc3ccc(Br)cc3Cl)c(C(=O)NOCCO)cc21 [selumetinib] + C[C@]1(O)C[C@@H](c2nc(-c3ccc4ccc(-c5ccccc5)nc4c3)c3c(N)nccn32)C1 [OSI906] (first compound 0.075 µM, partner dose 2 µM) | 92.4
20 | Cn1cnc2c(F)c(Nc3ccc(Br)cc3Cl)c(C(=O)NOCCO)cc21 [selumetinib] + C[C@@H](Oc1cc(-c2cnn(C3CCNCC3)c2)cnc1N)c1c(Cl)ccc(F)c1Cl [Crizotinib] (first compound 0.075 µM, partner dose 1 µM) | 62.9
21 | COc1cc([C@@H]2c3cc4c(cc3[C@@H](O[C@@H]3O[C@@H]5CO[C@@H](C)O[C@H]5[C@H](O)[C@H]3O)[C@H]3COC(=O)[C@H]23)OCO4)cc(OC)c1O [etoposide] + O=C(O)c1ccc2c(c1)nc(Nc1cccc(Cl)c1)c1ccncc12 [CX4945] (first compound 0.1 µM, partner dose 2 µM) | 70.2
22 | Cn1cnc2c(F)c(Nc3ccc(Br)cc3Cl)c(C(=O)NOCCO)cc21 [selumetinib] + O=C(O)[C@@H]1[O][Sb](=[O])([O][Sb]2(=[O])[O][C@H]([C@H](O)CO)[C@H](O)[C@H](C(=O)O)[O]2)[O][C@H]([C@H](O)CO)[C@@H]1O [stibogluconate] (first compound 0.075 µM, partner dose 10 µM) | 102
23 | COc1cc([C@@H]2c3cc4c(cc3[C@@H](O[C@@H]3O[C@@H]5CO[C@@H](C)O[C@H]5[C@H](O)[C@H]3O)[C@H]3COC(=O)[C@H]23)OCO4)cc(OC)c1O [etoposide] + C[C@]1(c2nc3c(C(N)=O)cccc3[nH]2)CCCN1 [Veliparib] (first compound 0.1 µM, partner dose 7 µM) | 61.9
24 | C[C@]1(O)C[C@@H](c2nc(-c3ccc4ccc(-c5ccccc5)nc4c3)c3c(N)nccn32)C1 + CC1(C)NC(=O)N(c2ccc([N+](=O)[O-])c(C(F)(F)F)c2)C1=O [nilutamide] (first compound 2 µM, partner dose 5 µM) | 121
25 | Cn1cnc2c(F)c(Nc3ccc(Br)cc3Cl)c(C(=O)NOCCO)cc21 [selumetinib] + O=C(CCCCCCC(=O)Nc1ccccc1)NO [vorinostat] (first compound 0.075 µM, partner dose 0.4 µM) | 101
26 | C[C@]1(O)C[C@@H](c2nc(-c3ccc4ccc(-c5ccccc5)nc4c3)c3c(N)nccn32)C1 + Clc1ccc(Nc2nnc(Cc3ccncc3)c3ccccc23)cc1 [vatalanib] (first compound 2 µM, partner dose 10 µM) | 76.3
27 | CCN(CC)CCNC(=O)c1c(C)[nH]c(/C=C2\C(=O)Nc3ccc(F)cc32)c1C [sunitinib] + O=C(Nc1cccc(Cl)c1)Nc1ncc(CCNc2ncnc3ccsc23)s1 [SNS314] (first compound 2 µM, partner dose 0.004 µM) | 74.4
